From the supplement of paper PMC4604168 (melanoma cell lines)
The other results are listed elsewhere or left out. Many values rest on one well or one pass, so single values are uncertain.

Tested on: IPC-298
Assay: cell count relative to DMSO control; melanoma cells; higher = more viable cells
Details: library dose: standard library concentration; 72 h
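Further: cells treated in 1,536-well plates, then fixed and DAPI-stained, with nuclei counted from automated high-throughput microscope images.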

| Structure (SMILES) | cell count [%] |
| --- | --- |
| NC(=O)c1ccc(N(C(N)=O)c2c(F)cccc2F)nc1-c1ccc(F)cc1F + Cc1nc(Nc2ncc(C(=O)Nc3c(C)cccc3Cl)s2)cc(N2CCN(CCO)CC2)n1 [dasatanib] (first compound 2 µM, partner dose 0.02 µM) | 99.4 |
| CC(C)(C)c1cnc(CSc2cnc(NC(=O)C3CCNCC3)s2)o1 + c1cc(-c2cnn3cc(-c4ccc(OCCN5CCCCC5)cc4)cnc23)ccn1 [Dorsomorphin] (first compound 0.05 µM, partner dose 2 µM) | 72.3 |
| CC(C)(C)c1cnc(CSc2cnc(NC(=O)C3CCNCC3)s2)o1 + C[C@@H]1CCN(C(=O)CC#N)C[C@@H]1N(C)c1ncnc2[nH]ccc12 [CP690550] (first compound 0.05 µM, partner dose 5 µM) | 106 |
| CC(C)(C)c1cnc(CSc2cnc(NC(=O)C3CCNCC3)s2)o1 + Oc1nc(-c2ccc(C(F)(F)F)cc2)nc2c1CSCC2 [XAV939] (first compound 0.05 µM, partner dose 10 µM) | 85.5 |
| NC(=O)c1ccc(N(C(N)=O)c2c(F)cccc2F)nc1-c1ccc(F)cc1F + C=C(c1ccc(C(=O)O)cc1)c1cc2c(cc1C)C(C)(C)CCC2(C)C [Bexarotene] (first compound 2 µM, partner dose 10 µM) | 80.5 |
| CCc1ccc(CCOc2ccc(CC3SC(=O)NC3=O)cc2)nc1 (centres undefined) [pioglitazone] + N#Cc1c(O)c2c(-c3ccc(-c4ccccc4O)cc3)csc2[nH]c1=O [A769662] (first compound 10 µM, partner dose 10 µM) | 98.7 |
| CC(C)(C)c1cnc(CSc2cnc(NC(=O)C3CCNCC3)s2)o1 + Cc1cc([N+](=O)[O-])ccc1NS(=O)(=O)c1cc(Cl)ccc1Cl [FH535] (first compound 0.05 µM, partner dose 5 µM) | 55.4 |
| NC(=O)c1ccc(N(C(N)=O)c2c(F)cccc2F)nc1-c1ccc(F)cc1F + CN(c1ncccc1CNc1nc(Nc2ccc3c(c2)CC(=O)N3)ncc1C(F)(F)F)S(C)(=O)=O [PF562271] (first compound 2 µM, partner dose 0.4 µM) | 78.5 |
| Cc1ccc(NC(=O)c2cccc(N(C)C)c2)cc1NC(=O)c1ccc(O)cc1 + Cc1cc(N2CCOCC2)cc2[nH]c(-c3c(NC[C@@H](O)c4cccc(Cl)c4)cc[nH]c3=O)nc12 [BMS536924] (first compound 10 µM, partner dose 1 µM) | 96.8 |
| Cc1ccc(NC(=O)c2cccc(N(C)C)c2)cc1NC(=O)c1ccc(O)cc1 + Cn1cc(/C=C2\C(=O)Nc3cccnc32)c2ccccc21 [GW441756] (first compound 10 µM, partner dose 2 µM) | 74.2 |
| CC(C)(C)c1cnc(CSc2cnc(NC(=O)C3CCNCC3)s2)o1 + OCCn1cc(-c2cnc3nnn(Cc4ccc5ncccc5c4)c3n2)cn1 [PF04217903] (first compound 0.05 µM, partner dose 5 µM) | 119 |
| NC(=O)c1ccc(N(C(N)=O)c2c(F)cccc2F)nc1-c1ccc(F)cc1F + CCCCCCCCc1ccc(CCC(N)(CO)CO)cc1 [fingolimod] (first compound 2 µM, partner dose 10 µM) | 19.9 |
| NC(=O)c1ccc(N(C(N)=O)c2c(F)cccc2F)nc1-c1ccc(F)cc1F + C[C@@H](Oc1cc(-c2cnn(C3CCNCC3)c2)cnc1N)c1c(Cl)ccc(F)c1Cl [Crizotinib] (first compound 2 µM, partner dose 1 µM) | 99.8 |
| CCCCCCCCc1ccc(CCC(N)(CO)CO)cc1 [fingolimod] + C=C(c1ccc(C(=O)O)cc1)c1cc2c(cc1C)C(C)(C)CCC2(C)C [Bexarotene] (first compound 10 µM, partner dose 10 µM) | 20.3 |
| NC(=O)c1ccc(N(C(N)=O)c2c(F)cccc2F)nc1-c1ccc(F)cc1F + O=C(O)c1ccc(-c2c[nH]c3ncc(-c4ccccc4)cc23)cc1C1CCCC1 [GSK650394] (first compound 2 µM, partner dose 0.8 µM) | 87.3 |
| CCCCCCCCc1ccc(CCC(N)(CO)CO)cc1 [fingolimod] + CS(=O)(=O)CCNCc1ccc(-c2ccc3ncnc(Nc4ccc(OCc5cccc(F)c5)c(Cl)c4)c3c2)o1 [lapatinib] (first compound 10 µM, partner dose 4 µM) | 0.32 |
| CC(C)(C)c1cnc(CSc2cnc(NC(=O)C3CCNCC3)s2)o1 + CN(NC(=O)CC(=O)NN(C)C(=S)c1ccccc1)C(=S)c1ccccc1 [STA4783] (first compound 0.05 µM, partner dose 0.03 µM) | 69.2 |
| CCCCCCCCc1ccc(CCC(N)(CO)CO)cc1 [fingolimod] + COc1ccc(Cl)c(Nc2nc3ccccc3nc2NS(=O)(=O)c2cccc(NC(=O)C(C)(C)N)c2)c1 [XL147] (first compound 10 µM, partner dose 4 µM) | 72 |
| CCCCCCCCc1ccc(CCC(N)(CO)CO)cc1 [fingolimod] + C[C@@H]1CCN(C(=O)CC#N)C[C@@H]1N(C)c1ncnc2[nH]ccc12 [CP690550] (first compound 10 µM, partner dose 5 µM) | 81.9 |
| COc1cc2c(Oc3ccc4[nH]c(C)cc4c3F)ncnc2cc1OCCCN1CCCC1 [cediranib] + CCN(CC)CCCCNc1ncc2cc(-c3cc(OC)cc(OC)c3)c(NC(=O)NC(C)(C)C)nc2n1 [PD173074] (first compound 2 µM, partner dose 0.5 µM) | 98.1 |
| NC(=O)c1ccc(N(C(N)=O)c2c(F)cccc2F)nc1-c1ccc(F)cc1F + CN(C)S(=O)(=O)c1ccc2c(c1)/C(=C/c1cc3c([nH]1)CCCC3)C(=O)N2 [SU6656] (first compound 2 µM, partner dose 2 µM) | 73.7 |
| CCCCCCCCc1ccc(CCC(N)(CO)CO)cc1 [fingolimod] + COCC[n+]1c2c(n(Cc3cnccn3)c1C)C(=O)c1ccccc1C2=O [YM155] (first compound 10 µM, partner dose 0.002 µM) | 19.6 |
| CC(C)(C)c1cnc(CSc2cnc(NC(=O)C3CCNCC3)s2)o1 + COc1ccc2c(c1)CCC1C2CCC2(C)C(NCCCCCCN3C(=O)C=CC3=O)CCC12 [U73122] (first compound 0.05 µM, partner dose 2 µM) | 109 |
| CC(C)(C)c1cnc(CSc2cnc(NC(=O)C3CCNCC3)s2)o1 + COc1ccc(COc2ccc(Cc3cnc(N)nc3N)cc2OC)cc1 [GW2580] (first compound 0.05 µM, partner dose 5 µM) | 107 |
